The whole screen tested about 48,000 compounds, of which about 450 (0.94%) were called active. About 19% were inconclusive and are not listed. The call rests on the fitted dose curve; in most records, active means well fitted inhibition curve with a large enough effect; inconclusive means small, poorly fitted or top-dose-only effect; inactive means no such curve, though single readings can be large or run the other way. The list shows a part of the results.

The assay can be described thus: Primary qHTS for Identification of Small Molecule Inhibitors of Huntingtin Promoter Activity. Further: nearly all actives have a fitted effect of over 50% in size. The following applies: HEK293 HTT promoter firefly luciferase reporter (activity 0% = vehicle and -100% = no light), 24 h; activity change, negative = inhibition: at the top concentration. A digest of the protocol:
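Firefly luciferase readout (Dual-Glo, 10 min RT) after 24 h, 37 °C compound exposure (final up to 57.5 uM) of HEK293 reporter cells cultured 24 h beforehand; PTC124 at 50 uM final as control inhibitor; activity scaled vehicle 0%, zero RLU -100%.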
As for `CC(C(=O)c1ccccc1)N(C)C` (centres undefined), the “activity change, negative = inhibition” value was inactive: 2.63%.

In the case of `Cc1c(Cl)cccc1NC(=O)CN1C(=O)C(C)N=C(c2ccccc2)c2ccccc21` (centres undefined), the “activity change, negative = inhibition” value is inactive: -3.12%.

Turning to `Cc1cccc(-n2c(/C=C/c3c(C)[nH]c4ccccc34)nc3ccccc3c2=O)c1`, the “activity change, negative = inhibition” value is inactive: -7.65%. Then `Nc1c(C(=O)Nc2ccc(Br)cc2F)sc2nc3c(cc12)N1CCC3CC1`, with inactive: -29.1%. On to `CCN(CC)CCOC(=O)C(C)(c1ccccc1)c1ccccc1`, for which the “activity change, negative = inhibition” value is inactive: 0.763%. The result for `CC(C)=CCOc1c2occc2cc2ccc(=O)oc12` reads inactive: -1.41%. Consider `N[C@@H](Cc1ccc(N(CCCl)CCCl)cc1)C(=O)O`, for which the “activity change, negative = inhibition” value is inactive: -10.5%.

Consider `Cc1nnc(NC(=O)c2cccn(Cc3cccc(Cl)c3)c2=O)s1`, for which the “activity change, negative = inhibition” value was inactive: 27.1%.

On to `CCC(=O)OC1CCC2C3CCC4=CC(=O)CC[C@@]4(C)C3CC[C@]12C` (some centres undefined), for which the “activity change, negative = inhibition” value was inactive: 17.5%. Turning to `C=CCN1C[C@H](C)N([C@H](c2ccc(C(=O)N(CC)CC)cc2)c2cccc(OC)c2)C[C@H]1C`, the “activity change, negative = inhibition” value was inactive: 0.0402%.

On to `COc1cc(C(c2c(O)c3ccccc3oc2=O)c2c(C)n(C)n(-c3ccccc3)c2=O)ccc1O` (centres undefined), for which the “activity change, negative = inhibition” value was inactive: -2.74%. For `CC(C)N(CCC(C(N)=O)(c1ccccc1)c1ccccn1)C(C)C` (centres undefined), the “activity change, negative = inhibition” value is inactive: 6.55%. Then `CN1CCN(c2oc(-c3ccc(COc4ccccc4)o3)nc2C#N)CC1`, with inactive: -17.1%. Then `CC(Cc1ccc(O)cc1)NCC(O)c1cc(O)cc(O)c1` (centres undefined), with inactive: 7.65%; and `N#Cc1cccc(NC(=O)c2sc3nc4c(cc3c2N)N2CCC4CC2)c1`, with inactive: 21.3%. Then `Cc1oc(-c2ccccc2Cl)nc1CN1C(=O)CN=C(c2ccccc2)c2cc(Cl)ccc21`, with inactive: -23.2%. For the molecule `C=CC[C@]1(O)CC[C@H]2[C@@H]3CCC4=CC(=O)CCC4=C3C=C[C@@]21C`, the “activity change, negative = inhibition” value was inactive: -9.66%. The result for `CS(=O)(=O)c1ccc(C(=O)C2C(=O)CCCC2=O)c([N+](=O)[O-])c1` reads inactive: 11.7% [at 116 µM]; that for `CCCN1CCC[C@@H]2Cc3nc(N)ncc3C[C@H]21`, inactive: 10.9%; that for `CCN[C@@H](C)Cc1ccccc1`, inactive: -4.52% [at 116 µM]. On to `CCO[C@H]1O[C@@H]2OC3(C)CC[C@H]4[C@H](C)CC[C@@H]([C@H]1C)[C@@]24OO3`, for which the “activity change, negative = inhibition” value is inactive: -23.1%. With `N#Cc1cc2c(nc1SCC(=O)Nc1ccc(F)c(Cl)c1)C1CCN2CC1`, the “activity change, negative = inhibition” value was inactive: -21.2%. As for `COc1cc(CC(C)N)cc2c1OCO2` (centres undefined), the “activity change, negative = inhibition” value is inactive: -1.48% [at 116 µM].

As to `O=C1CC(c2ccc(F)cc2)c2c(c3ccccc3oc2=O)O1` (centres undefined), the “activity change, negative = inhibition” value is inactive: 21.5%. Then `CC(C)(C)[C@]1(O)C[C@@H]2OC(=O)C[C@@]23C(=O)O[C@@H]2OC(=O)[C@H](O)C213` (some centres undefined), with inactive: -0.713%. The result for `COc1ccc(CCNCc2ccc3c(c2)n(C)c(=O)n3C)cc1` reads inactive: -11.8%.

For `COCC1(CO)C(=O)C2CCN1CC2` (centres undefined), the “activity change, negative = inhibition” value is inactive: -18.5%. Then `CCCC12CN3CC(C)(CN(C1)C3c1ccccn1)C2=O` (centres undefined), with inactive: -12%.

As to `CC(=O)N(C)c1cccc(-c2ccnc3c(C(=O)c4cccs4)cnn23)c1`, the “activity change, negative = inhibition” value is inactive: 5.46%. Then `CC(Cc1ccc2c(c1)OCO2)NO` (centres undefined), with inactive: 13.6% [at 116 µM]; and `O=S(=O)(CC1CS1)c1ccc(Oc2ccccc2)cc1` (centres undefined), with inactive: 13.4%. Then `CC(C)(C)NC[C@H](O)c1ccc(O)cc1Cl`, with inactive: -2.07%; and `COC(C)(C)CCCC(C)C/C=C/C(C)=C/C(=O)OC(C)C` (centres undefined), with inactive: -0.504%. The result for `CC(C)(C)c1ccc(OCC(=O)Nc2ccc(Cl)cc2C(=O)c2ccccc2)cc1` reads inactive: -4.82%; that for `CCOc1ccccc1CN(CCc1ccc2c(c1)OCO2)Cc1ccc(CC)cc1`, inactive: -19%; that for `CSc1ncc(C(=O)Nc2ccc(Cl)cc2C(=O)c2ccccc2)c(C)n1`, inactive: 0.612%. Turning to `N#Cc1cccc(NC(=O)CSc2nc3c(cc2C#N)N2CCC3CC2)c1`, the “activity change, negative = inhibition” value is inactive: 41.2%.

Regarding `Cc1nnc(NC(=O)c2cccn(Cc3cccc([N+](=O)[O-])c3)c2=O)s1`, the “activity change, negative = inhibition” value is inactive: -9.92%. With `C[N+]1(CCC(C(N)=O)(c2ccccc2)c2ccccc2)CCCCC1`, the “activity change, negative = inhibition” value was inactive: -4.45%. With `O=C(O)COc1nc(Cl)c(Cl)cc1Cl`, the “activity change, negative = inhibition” value is inactive: 9.95% [at 116 µM]. The result for `C#C[C@]1(O)CC[C@H]2[C@@H]3CCC4=CC(=O)CC[C@]4(C)[C@H]3CC[C@@]21C` reads inactive: -9.29%; that for `C[C@H]1[C@@H]2Cc3ccc(O)cc3[C@@]1(C)CCN2C`, inactive: 0.662% [at 288 µM]; that for `C[C@]12COC(=O)C[C@@H]1CC[C@@H]1[C@H]2CC[C@@]2(C)[C@H]1CC[C@]2(C)O`, inactive: -10.7%. Then `COP(=S)(OC)Oc1ccc(SC)c(C)c1`, with inactive: 1.04%.

On to `O=c1[nH]c2ccccc2n1CCCN1CCC(n2c(=O)[nH]c3cc(Cl)ccc32)CC1`, for which the activity change, negative = inhibition entry was “inactive”. Then `CCN(CC)C(=O)c1ccc(NC(=O)Cn2nc(-c3ccc(C)cc3)c3ccccc3c2=O)cc1`, with inactive: -10.6%. For the molecule `O=[N+]([O-])c1c(Cl)c(Cl)cc(Cl)c1Cl`, the “activity change, negative = inhibition” value is inactive: 8.7% [at 116 µM]. The result for `Cc1ccc(N=CN(C)C=Nc2ccc(C)cc2C)c(C)c1` reads inactive: -1.02%; that for `CC(C)CC(N(C)C)C1(c2ccc(Cl)cc2)CCC1` (centres undefined), “inactive”; that for `COc1ccc(C(=O)N2CCCC2=O)cc1`, “inactive”. In the case of `Cc1cccc(Cn2cccc(C(=O)Nc3cc(C)on3)c2=O)c1`, the “activity change, negative = inhibition” value was inactive: -9.72%.

With `COc1ccc(OC)c(CC(C)N)c1` (centres undefined), the “activity change, negative = inhibition” value was inactive: -4.17% [at 116 µM]. The result for `CN1C(=S)CN=C(c2ccccc2)c2cc(Cl)ccc21` reads inactive: -6.13%; that for `CCCCOC(=O)c1ccccc1C(=O)OCc1ccccc1`, inactive: 20.2% [at 116 µM]; that for `CC[C@@H](C(N)=O)N1CCCC1=O`, inactive: -24.4%. On to `c1cc2c(cc1[C@H]1OC[C@H]3[C@H]1CO[C@H]3c1ccc3c(c1)OCO3)OCO2`, for which the “activity change, negative = inhibition” value was inactive: -19.6%.

Consider `O=C(O)CCCc1ccc(N(CCCl)CCCl)cc1`, for which the activity change, negative = inhibition entry is “inactive”. With `CC1=C2C[C@@H]3[C@@H](CC=C4C[C@@H](O)CC[C@@]43C)[C@@H]2CC[C@]12O[C@H]1C[C@H](C)CN[C@H]1[C@H]2C`, the “activity change, negative = inhibition” value was inactive: 9.26%. With `COc1cccc(C(=O)CCN[C@@H](C)[C@H](O)c2ccccc2)c1`, the “activity change, negative = inhibition” value was inactive: 7.06%. The result for `C#CCOC(C(=O)OCCN(C)C)(c1ccccc1)c1ccccc1` reads inactive: 4.73%. For the molecule `O=C1c2ccccc2C(=O)C1C(=O)C(c1ccccc1)c1ccccc1`, the “activity change, negative = inhibition” value is inactive: -2.1%. The result for `COc1ccc(-c2nc(CN3C(=O)CN=C(c4ccccc4)c4ccccc43)c(C)o2)cc1` reads inactive: -14.1%; that for `Nc1ccncc1`, inactive: 1.35%. Regarding `C[N+]1(CCF)[C@@H]2CC[C@H]1CC(OC(=O)C(O)(c1ccccc1)c1ccccc1)C2` (some centres undefined), the “activity change, negative = inhibition” value is inactive: -6.21%.

The record behind these values is PubChem BioAssay AID1508623 (National Center for Advancing Translational Sciences (NCATS), 2021).
